The test system of data set [1] is GSK-3β. Put plainly: GSK-3β kinase assay (phosphorylation of CREB phosphopeptide). The data set is classed as biochemical, rabbit. Particulars: ratio of IC50 values. The method, then: (§1) GSK-3 was obtained from New England Biolabs (UK) Ltd., Hitchin, Herts. The recombinant enzyme was isolated from a strain of E. coli that carries a clone expressing GSK-3β derived from a rabbit skeletal muscle cDNA library [Wang, Q. M.; Fiol, C. […] The samples were transferred to 96-well p81 filter plates (Whatman Polyfiltronics, Kent, UK), and the plates were washed 4 times with 200 μL/well of 75 mM aq orthophosphoric acid.

Data set [2] deals with GSK-3β (Oryctolagus cuniculus, UniProt G1T8E2). The data set is described as above. The data set is classed as biochemical, rabbit. The protocol: as §1
The target in the next data set is CDK4/cyclin D1 (Homo sapiens, UniProt P11802). Put plainly: CDK/cyclin kinase assay, CDK4/cyclin D1.
The target in the next data set is T1, CDK2/cyclin E (Homo sapiens, UniProt P24941).
T1 construct: His6; made in house; host or cells: Sf9 insect cells (baculovirus)
Description: CDK/cyclin kinase assay, CDK2/cyclin E. The data set is classed as biochemical.

The subject of data set [3] is cellular glycogen synthase activity in HEK293 cells. Put plainly: Glycogen synthase (GS) assay in HEK293 cells. Type of data set: cell-based, human. Particulars: for capable of inducing cellular glycogen synthase (GS) activity: result in words; for -Fold induction of GS activity: In HEK293 cells at [compound] = 5 μM, over control samples. The method, then: Cells on 10 cm dishes (Human Embryonic Kidney (HEK) 293 cells, L6 rat myocytes, or 3T3 mouse adipocytes) were treated with different concentrations of GSK3-inhibitors or DMSO vehicle for 90 min. Incubation medium was removed and cells were washed with ice-cold phosphate-buffered saline (PBS) prior to lysis on ice in 50 mM HEPES, pH 7.5, 10 mM EDTA, 100 mM NaF, 5 mM DTT, protease inhibitor cocktail (Sigma). After a freeze/thaw cycle the samples are sonicated for 10 sec and centrifuged at 15,000 g for 10 min at 4° C. Lysate supernatants were snap-frozen on liquid nitrogen and stored at −80° C. Lysates were assayed for glycogen synthase activity in buffer (50 mM Tris-HCl, pH 7.8, 20 mM EDTA, 25 mM NaF, 5 mM DTT, 1% glycogen, 0.3 mM UDP-glucose and 0.06 μCi of [^14C]-UDP-glucose in the presence of 0.1 or 10 mM glucose-6-phosphate. The reaction was carried out for 30 min at 30° C. 70 μL of the reaction mixture (total volume 90 μL) were transferred to a GFC 96-well filter plate (bottom sealed with foil), containing 140 μL 96% ethanol. The GFC plate was incubated for 1 h on ice and than washed with 66% ethanol. To each well 100 μL scintillant liquid was added and the radioactivity of the samples was measured using a scintillation counter (Topcount, HP). Data are expressed as -fold increase in glycogen synthase activity ratios over those of control samples.

Another data set concerns the target CDK1/cyclin B1 (Homo sapiens, UniProt P06493). Description: CDK/cyclin kinase assay, CDK1/cyclin B1.
[4] abbreviates: read-out: Kinase inhibition IC50 GSK3β.
Where [5] appears, read: read-out: Kinase inhibition IC50 CDK2/E.
The mark [6] stands for this setting: read-out: IC50 value as measured by a GSK3β kinase assay.

Like-named read-outs stand apart in the source and are kept apart here.

Chain of GSK-3β (G1T8E2 1-432): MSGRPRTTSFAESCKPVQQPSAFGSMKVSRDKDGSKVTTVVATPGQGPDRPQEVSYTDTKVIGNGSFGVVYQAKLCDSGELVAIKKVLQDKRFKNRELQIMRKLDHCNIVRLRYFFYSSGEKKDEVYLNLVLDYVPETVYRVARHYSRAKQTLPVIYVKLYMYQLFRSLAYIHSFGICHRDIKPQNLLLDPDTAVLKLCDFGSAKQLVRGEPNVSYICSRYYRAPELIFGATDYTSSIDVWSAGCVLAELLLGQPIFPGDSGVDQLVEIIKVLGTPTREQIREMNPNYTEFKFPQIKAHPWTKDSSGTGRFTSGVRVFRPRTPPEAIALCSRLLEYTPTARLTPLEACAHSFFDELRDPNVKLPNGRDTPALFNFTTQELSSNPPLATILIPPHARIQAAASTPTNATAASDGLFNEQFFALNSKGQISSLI
Chain of CDK4/cyclin D1 (P11802 whole entry): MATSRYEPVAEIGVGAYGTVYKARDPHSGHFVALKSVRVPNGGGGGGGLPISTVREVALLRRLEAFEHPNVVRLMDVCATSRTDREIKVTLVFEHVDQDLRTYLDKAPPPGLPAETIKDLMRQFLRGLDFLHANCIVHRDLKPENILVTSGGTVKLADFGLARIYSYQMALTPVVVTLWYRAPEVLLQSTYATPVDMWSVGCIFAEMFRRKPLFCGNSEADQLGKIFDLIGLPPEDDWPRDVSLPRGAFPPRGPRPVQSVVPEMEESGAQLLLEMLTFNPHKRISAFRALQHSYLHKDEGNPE
Chain of CDK4/cyclin D1 (P24385 whole entry partner): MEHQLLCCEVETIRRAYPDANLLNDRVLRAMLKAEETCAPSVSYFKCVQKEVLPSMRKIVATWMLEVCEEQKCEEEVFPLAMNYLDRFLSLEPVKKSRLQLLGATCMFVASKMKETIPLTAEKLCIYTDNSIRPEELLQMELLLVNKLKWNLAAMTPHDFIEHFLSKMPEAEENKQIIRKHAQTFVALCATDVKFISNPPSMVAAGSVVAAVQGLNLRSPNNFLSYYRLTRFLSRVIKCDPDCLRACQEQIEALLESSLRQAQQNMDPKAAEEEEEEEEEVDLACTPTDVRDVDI
Chain of CDK1/cyclin B1 (P06493 whole entry): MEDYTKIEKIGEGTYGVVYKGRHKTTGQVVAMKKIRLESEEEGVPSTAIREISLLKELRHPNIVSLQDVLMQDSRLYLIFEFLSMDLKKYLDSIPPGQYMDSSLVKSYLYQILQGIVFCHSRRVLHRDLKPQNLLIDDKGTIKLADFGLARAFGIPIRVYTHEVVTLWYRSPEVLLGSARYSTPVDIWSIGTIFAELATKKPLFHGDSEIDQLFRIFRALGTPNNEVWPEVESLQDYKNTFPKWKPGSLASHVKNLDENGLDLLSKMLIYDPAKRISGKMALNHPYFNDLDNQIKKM
Chain of CDK1/cyclin B1 (P14635 whole entry partner): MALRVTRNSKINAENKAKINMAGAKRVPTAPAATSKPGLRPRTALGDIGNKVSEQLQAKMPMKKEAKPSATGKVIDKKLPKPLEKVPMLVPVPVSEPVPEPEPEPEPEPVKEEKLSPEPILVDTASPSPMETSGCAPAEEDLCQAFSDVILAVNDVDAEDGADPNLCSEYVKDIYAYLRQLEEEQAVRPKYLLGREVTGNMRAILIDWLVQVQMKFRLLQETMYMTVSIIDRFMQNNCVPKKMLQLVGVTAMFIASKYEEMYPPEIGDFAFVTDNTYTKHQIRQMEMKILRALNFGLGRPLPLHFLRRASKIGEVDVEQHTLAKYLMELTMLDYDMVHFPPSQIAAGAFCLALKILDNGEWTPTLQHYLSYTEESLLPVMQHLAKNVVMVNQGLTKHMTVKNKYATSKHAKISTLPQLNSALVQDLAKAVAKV

Consider `Cc1[nH]c(CN(C)C)c(C)c1-c1ccnc(Nc2ccc(F)cc2)n1` [Compound 19, [4-(5-Dimethylaminomethyl-2,4-dimethyl-1H-pyrrole-3-yl)-pyrimidin-2-yl]-(4-fluoro-phenyl)-amine], for which the “Selectivity, IC50 (CDK2/E)/IC50 (GSK3β)” value in the data set with GSK-3β [1] was found to be 0.01. Further, the IC50 on GSK-3β [2] (setting [4]) turned out to be 14000 nM; against CDK4/cyclin D1, 4500 nM; at CDK2/cyclin E (setting [5]), 140 nM.
Take `Cc1[nH]c(C#N)c(C)c1-c1ccnc(Nc2ccc(F)cc2)n1` [Compound 2, 4-[2-(4-Fluoro-phenylamino)-pyrimidin-4-yl]-3,5-dimethyl-1H-pyrrole-2-carbonitrile]: at GSK-3β [2] (setting [4]), the IC50 stood at 150 nM.
In the case of `Cc1ccc(Nc2nccc(-c3c(C)[nH]c(C#N)c3C)n2)cc1[N+](=O)[O-]` [Compound 7, 3,5-Dimethyl-4-[2-(4-methyl-3-nitro-phenylamino)-pyrimidin-4-yl]-1H-pyrrole-2-carbonitrile], the IC50 at GSK-3β [2] (setting [6]) was less than 100 nM; on GSK-3β [2] (setting [4]) it was 40 nM. In addition, the “capable of inducing cellular glycogen synthase (GS) activity” value (“capable” below) in data set [3] was “inducing cellular glycogen synthase (GS) activity”.
As for `Cc1nc(N)sc1-c1ccnc(Nc2cccc([N+](=O)[O-])c2)n1` [Compound 30, [4-(2-Amino-4-methyl-thiazol-5-yl)-pyrimidin-2-yl]-(3-nitro-phenyl)-amine], the IC50 at GSK-3β [2] (setting [4]) turned out to be 220 nM.
Turning to `Cc1c(-c2ccnc(Nc3cccc([N+](=O)[O-])c3)n2)sc(=O)n1C` [Compound 32, 3,4-Dimethyl-5-[2-(3-nitro-phenylamino)-pyrimidin-4-yl]-3H-thiazol-2-one], the “Selectivity, IC50 (CDK2/E)/IC50 (GSK3β)” value with GSK-3β [1] is reported as 86. Besides, the IC50 was less than 1 nM on GSK-3β [2] (setting [6]), 0.7 nM on GSK-3β [2] (setting [4]), 230 nM against CDK4/cyclin D1 and 60 nM on CDK2/cyclin E (setting [5]). For the same molecule, in data set [3], the “-Fold induction of GS activity” value is 5.4 -fold. For the same molecule, the “capable” value in data set [3] was “inducing cellular glycogen synthase (GS) activity”.
Take `Cc1ccc(Nc2nccc(-c3c(C)[nH]c(C#N)c3C)n2)cc1O` [Compound 10, 4-[2-(3-Hydroxy-4-methyl-phenylamino)-pyrimidin-4-yl]-3,5-dimethyl-1H-pyrrole-2-carbonitrile]: the IC50 was less than 1000 nM on GSK-3β [2] (setting [6]) and 280 nM at GSK-3β [2] (setting [4]).
For `Cc1[nH]c(Cl)c(C)c1-c1ccnc(Nc2ccc(F)cc2)n1` [Compound 18, [4-(5-Chloro-2,4-dimethyl-1H-pyrrole-3-yl)-pyrimidin-2-yl]-(4-fluoro-phenyl)-amine], the IC50 at GSK-3β [2] (setting [4]) was determined as 2500 nM.
As to `Cc1cc(Nc2nccc(-c3sc(=O)n(C)c3C)n2)ccc1F` [Compound 37, 5-[2-(4-Fluoro-3-methyl-phenylamino)-pyrimidin-4-yl]-3,4-dimethyl-3H-thiazol-2-one], the “Selectivity, IC50 (CDK2/E)/IC50 (GSK3β)” value in the data set on GSK-3β [1] worked out at 2.7. In addition, the IC50 on GSK-3β [2] (setting [6]) was less than 100 nM; at GSK-3β [2] (setting [4]), 50 nM; against CDK1/cyclin B1, 1100 nM; on CDK2/cyclin E (setting [5]) it was 130 nM. Also, the “-Fold induction of GS activity” value in data set [3] is recorded as 3.5 -fold.
As to `Cc1[nH]c(C#N)c(C)c1-c1ccnc(Nc2cccc([N+](=O)[O-])c2)n1` [Compound 1, 3,5-Dimethyl-4-[2-(3-nitro-phenylamino)-pyrimidin-4-yl]-1H-pyrrole-2-carbonitrile], on GSK-3β [2] (setting [4]), the IC50 was determined as 210 nM.
In the case of `Cc1[nH]cc(-c2ccccc2)c1-c1ccnc(Nc2ccc(F)cc2)n1` [Compound 27, (4-Fluoro-phenyl)-[4-(2-methyl-4-phenyl-1H-pyrrole-3-yl)-pyrimidin-2-yl]-amine], in the data set on GSK-3β [1], the “Selectivity, IC50 (CDK2/E)/IC50 (GSK3β)” value is listed as greater than 100. The IC50 is 500 nM at GSK-3β [2] (setting [4]) and greater than 50000 nM at CDK2/cyclin E (setting [5]). The “-Fold induction of GS activity” value in data set [3] is recorded as 1.8 -fold. For the same molecule, the “capable” value in data set [3] is listed as “inducing cellular glycogen synthase (GS) activity”.
Take `Cc1[nH]c(C(N)=O)c(C)c1-c1ccnc(Nc2ccc(F)cc2)n1` [Compound 13, 4-[2-(4-Fluoro-phenylamino)-pyrimidin-4-yl]-3,5-dimethyl-1H-pyrrole-2-carboxylic acid amide]: the IC50 is less than 100 nM at GSK-3β [2] (setting [6]) and 50 nM on GSK-3β [2] (setting [4]).
Regarding `Cc1ccc(Nc2nccc(-c3c(C)[nH]c(C#N)c3C)n2)cc1F` [Compound 22, 4-[2-(3-Fluoro-4-methyl-phenylamino)-pyrimidin-4-yl]-3,5-dimethyl-1H-pyrrole-2-carbonitrile], the “Selectivity, IC50 (CDK2/E)/IC50 (GSK3β)” value in the data set with GSK-3β [1] was found to be 2.2. Besides, the IC50 worked out at 340 nM on GSK-3β [2] (setting [4]), 2070 nM on CDK4/cyclin D1 and 760 nM on CDK2/cyclin E (setting [5]). In addition, the “-Fold induction of GS activity” value in data set [3] is 2.8 -fold.
With `Cc1c(-c2ccnc(Nc3ccc(O)cc3)n2)sc(=O)n1C` [Compound 34, 5-[2-(4-Hydroxy-phenylamino)-pyrimidin-4-yl]-3,4-dimethyl-3H-thiazol-2-one], the “Selectivity, IC50 (CDK2/E)/IC50 (GSK3β)” value in the data set with GSK-3β [1] is 0.5. Also, the IC50 at GSK-3β [2] (setting [6]) is less than 100 nM; on GSK-3β [2] (setting [4]) it was 90 nM; on CDK4/cyclin D1 it was 600 nM; at CDK2/cyclin E (setting [5]), 50 nM. For the same molecule, the “-Fold induction of GS activity” value in data set [3] is 1.8 -fold. Besides, the “capable” value in data set [3] is reported as “inducing cellular glycogen synthase (GS) activity”.
Consider `Cc1[nH]c([N+](=O)[O-])c(C)c1-c1ccnc(Nc2ccc(F)cc2)n1` [Compound 14, [4-(2,4-Dimethyl-5-nitro-1H-pyrrole-3-yl)-pyrimidin-2-yl]-(4-fluoro-phenyl)-amine], for which the figures for the IC50 at GSK-3β [2] (setting [4]) and at CDK4/cyclin D1 were 800 nM and 220 nM, respectively.
As for `Cc1[nH]c(C#N)c(C)c1-c1ccnc(Nc2cccc(O)c2)n1` [Compound 6, 4-[2-(3-Hydroxy-phenylamino)-pyrimidin-4-yl]-3,5-dimethyl-1H-pyrrole-2-carbonitrile], the IC50 is less than 1000 nM at GSK-3β [2] (setting [6]), 160 nM at GSK-3β [2] (setting [4]) and 40 nM on CDK2/cyclin E. Besides, the “capable” value in data set [3] was “inducing cellular glycogen synthase (GS) activity”.
Take `Cc1[nH]c(Br)c(C)c1-c1ccnc(Nc2ccc(F)cc2)n1` [Compound 16, [4-(5-Bromo-2,4-dimethyl-1H-pyrrole-3-yl)-pyrimidin-2-yl]-(4-fluoro-phenyl)-amine]: the values for the IC50 at GSK-3β [2] (setting [4]) and against CDK2/cyclin E were 3200 nM and 550 nM, respectively.
`CCOC(=O)c1ccc(Nc2nccc(-c3sc(NC)nc3C)n2)cc1Cl` [Compound 29, 2-Chloro-4-[4-(4-methyl-2-methylamino-thiazol-5-yl)-pyrimidin-2-ylamino]-benzoic acid ethyl ester]: the “Selectivity, IC50 (CDK2/E)/IC50 (GSK3β)” value in the data set on GSK-3β [1] was 0.3. In addition, the IC50 on GSK-3β [2] (setting [4]) is 370 nM.
On to `Cc1cc(Nc2nccc(-c3c(C)[nH]c(C#N)c3C)n2)ccc1F` [Compound 11, 4-[2-(4-Fluoro-3-methyl-phenylamino)-pyrimidin-4-yl]-3,5-dimethyl-1H-pyrrole-2-carbonitrile], for which the IC50 at GSK-3β [2] (setting [6]) was less than 1000 nM; at GSK-3β [2] (setting [4]) it was 290 nM; at CDK4/cyclin D1, 360 nM.
As for `Cc1[nH]c(C#N)c(C)c1-c1ccnc(Nc2ccc(O)cc2)n1` [Compound 3, 4-[2-(4-Hydroxy-phenylamino)-pyrimidin-4-yl]-3,5-dimethyl-1H-pyrrole-2-carbonitrile], the IC50 at GSK-3β [2] (setting [4]) was 190 nM.
For `Cc1c(-c2ccnc(Nc3ccc(F)cc3)n2)sc(=O)n1C` [Compound 33, 5-[2-(4-Fluoro-phenylamino)-pyrimidin-4-yl]-3,4-dimethyl-3H-thiazol-2-one], the “Selectivity, IC50 (CDK2/E)/IC50 (GSK3β)” value in the data set on GSK-3β [1] is given as 6.7. Besides, the IC50 on GSK-3β [2] (setting [6]) is less than 100 nM; on GSK-3β [2] (setting [4]), 20 nM; at CDK4/cyclin D1 it was 1120 nM; at CDK2/cyclin E (setting [5]), 120 nM.

The values above are taken from patent US20050282843A1, “Therapeutic applications of 2-substituted 4-heteroarylpyrimidines” (priority 2002, published 2005).
